The campaign covered roughly 72,000 compounds. About 710 (0.99%) were called active. Inconclusive results, whose numbers are uncertain, are shown with a selection of clear calls. The call rests on the fitted dose curve; in most records, active means well fitted inhibition curve with a large enough effect; inconclusive means small, poorly fitted or top-dose-only effect; inactive means no such curve, though single readings can be large or run the other way. Potencies of inconclusive entries are doubtful fits and often do not repeat.
Assay: qHTS Assay for Inhibitors of the ERK Signaling Pathway using a Homogeneous Screening Assay; further: nearly all actives have a fitted effect of over 55% in size
Settings: HEK293-V1b, vasopressin-stimulated pERK AlphaScreen; activity, negative = inhibition: at 57.5 µM (top of the series) unless noted
In short: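 HEK293 cells stably expressing V1b receptor, preincubated 30 min at 37 °C with compound, then stimulated 5 min with 25 nM vasopressin. Phospho-ERK by AlphaScreen SureFire after 5 h RT; normalized to DMSO and vasopressin; AC50 by Hill fit.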
On the % scale 0 is the no-effect control and ±100 the full control effect; potency means the concentration at half of the fitted maximal effect; tags describe the fitted curve by direction and shape.

| Structure (SMILES) | activity, negative = inhibition | Potency |
| --- | --- | --- |
| COC(=O)C/C=C/C(C)C(OCc1cccc(-c2ccccc2)c1)C1CCCCC1 (stereo not given) | inactive: 4.6% [at 11.5 µM] |  |
| O=S(=O)(c1cccs1)N1CCc2ccccc2C1 |  | inconclusive: 6.31 µM [inhibitor, single point] |
| CCOC(=O)Cc1c(C)nc2cc(-c3ccc(Cl)cc3)[nH]n2c1=O | inactive: -1.37% |  |
| Cc1ccccc1NC(=O)c1nc[nH]c1C(=O)NCc1ccccc1 |  | active: 25.1 µM |
| Cc1cc(C)c(NC(=O)CN2C(=O)NC3(CCCCC3)C2=O)c(C)c1 | inactive: -15% |  |
| COC(=O)c1[nH]c2c(c1C)C(=O)CC(c1cccs1)C2 (stereo not given) | inactive: -28.7% |  |
| CCC(=O)N1CC23C=CC(CC2CC12CCCCC2)O3 (stereo not given) |  | inconclusive: 6.31 µM [inhibitor, partial curve] |
| CNC(=O)[C@@]1(C)C=C[C@@H](Cc2ccccc2)N1C(=O)OC |  | inconclusive: 39.8 µM [inhibitor, single point] |
| O=C(c1ccco1)N1CCN(C(=O)C2CC(c3ccc(F)cc3)=NO2)CC1 (stereo not given) | inactive: 21.8% |  |
| Nc1nc2c(s1)CC(c1ccccc1)CC2 (stereo not given) |  | inconclusive: 1.58 µM [inhibitor, partial curve] |
| CC12CC(c3ccccc3O1)N(C(=O)c1ccco1)C(=O)N2c1ccccc1 (stereo not given) |  | inconclusive: 12.6 µM [inhibitor, partial curve] |
| Cc1cc(=O)oc2cc(O[C@@H]3O[C@H](C(=O)O)[C@@H](O)[C@H](O)[C@H]3O)ccc12 |  | inconclusive: 39.8 µM [inhibitor, partial curve, poor fit] |
| CCc1ccc2[nH]c(=O)c(C(c3nnnn3CCOC)N3CCN(c4ccccc4)CC3)cc2c1 (stereo not given) |  | inconclusive: 20 µM [inhibitor, single point] |
| COc1ccc(-c2noc(CSc3nc(N)c(-c4ccccc4)c(=O)[nH]3)n2)cc1 |  | active: 12.6 µM |
| C[N+](C)(N)Cc1nc(-c2ccc(Cl)cc2)no1 | inactive: 0.925% [at 11.5 µM] |  |
| COc1cccc(-c2nccc(NCc3cnc(C)cn3)n2)c1 | inactive: -25% |  |
| CCC(=O)CC(NC(=O)OC)c1ccccc1 (stereo not given) | inactive: 19.4% [at 11.5 µM] |  |
| CCc1cc2c(nc1CC)CCN(CC/C(C)=N/O[C@@H](C)CN1CCCCc3nc(C)c(C)cc31)C2 | inactive: 16.2% [at 11.5 µM] |  |
| CCCc1[nH]nc2c1C(c1ccc(Br)s1)C(C#N)=C(N)O2 (stereo not given) |  | inconclusive: 39.8 µM [inhibitor, single point] |
| O=C1CC(c2ccco2)Cc2nc(NCC3CCCO3)ncc21 (stereo not given) |  | inconclusive: 15.8 µM [inhibitor, partial curve] |
| COc1ccc(OC)c(S(=O)(=O)N2CCCCCC2)c1 | inactive: -21.6% |  |
| NC(=O)C1CCN(c2nc(C3CC3)nc3c2nnn3Cc2ccccc2)CC1 |  | inconclusive: 10 µM [inhibitor, single point] |
| CCc1nc(SCC(=O)Nc2ccnc3ccccc23)n[nH]1 |  | inconclusive: 20 µM [inhibitor, partial curve] |

| Structure (SMILES) | activity, negative = inhibition | Potency |
| --- | --- | --- |
| Cc1cc2c(c(=O)n1Cc1ccc3c(c1)OCO3)C(c1cccnc1)C(C#N)=C(N)O2 (stereo not given) |  | inconclusive: 6.31 µM [inhibitor, partial curve] |
| COc1cc(OC)cc(C(=O)N2CCC(n3c(C)nc4cc(F)ccc43)CC2)c1 |  | inconclusive: 39.8 µM [inhibitor, single point] |
| CC(=O)c1cccc(NC(=O)Nc2cc3sccc3n2C)c1 |  | inconclusive: 20 µM [inhibitor, partial curve] |
| CCCCNc1cc(C)nc(NCc2ccccc2)n1 |  | inconclusive: 15.8 µM [inhibitor, single point] |
| CCNc1ncc2ncc(=O)n(C)c2n1 | inactive: -11.6% |  |
| CCOC(=O)c1c2c(n3ccccc13)C(=O)c1ccccc1C2=O |  | inconclusive: 3.16 µM [inhibitor, single point] |
| Cc1sc2ncnc(Oc3ccc(-n4ccnc4)cc3)c2c1C |  | inconclusive: 25.1 µM [inhibitor, single point] |
| CCn1c(=O)c(C)nn2c3ccccc3nc12 | inactive: -23.4% |  |
| COC(=O)c1[nH]c2ccc(F)cc2c1NC(=O)CCN1CCN(Cc2ccc3c(c2)OCO3)CC1 |  | inconclusive: 1.26 µM [inhibitor, single point] |
| C#CCOc1nc(OCC#C)nc(OCC#C)n1 |  | inconclusive: 0.0126 µM [inhibitor, full curve, poor fit] |
| c1cc2c(cc1C1CCCCC1)c1c3n2CCN[C@H]3CCC1 |  | inconclusive: 25.1 µM [inhibitor, partial curve] |
| FC(F)(F)c1ccccc1-c1ccc2ncnc(N3CCOCC3)c2c1 |  | inconclusive: 31.6 µM [inhibitor, single point] |
| CN(Cc1ccccc1)c1ncnc2c1cnn2-c1ccccc1 |  | inconclusive: 39.8 µM [inhibitor, partial curve] |
| O=C(CCCCn1c(=O)[nH]c2ccsc2c1=O)NCC1CCCO1 (stereo not given) |  | inconclusive: 25.1 µM [inhibitor, partial curve, poor fit] |
| Nc1nc2ncc(CNc3ccc(C(=O)N[C@@H](CCC(=O)O)C(=O)O)cc3)nc2c(=O)[nH]1 | inconclusive: -51.4% [inhibitor] [at 25.7 µM] |  |
| CC(O)c1c(OCc2ccccc2)ncnc1OCc1ccccc1 (stereo not given) |  | inconclusive: 39.8 µM [inhibitor, single point] |
| O=C(Nc1cccnc1)Nc1ccc(Br)cc1Cl |  | inconclusive: 39.8 µM [inhibitor, single point] |
| Nc1nc(Cl)nc2c1ncn2[C@@H]1O[C@H](CO)[C@@H](O)[C@H]1O |  | active: 10 µM |
| Cc1nn(C)cc1CNC(=O)c1cnn2c(C(F)F)cc(C3CC3)nc12 |  | active: 7.94 µM |
| COCCn1c(=O)cnc2cnc(Nc3ccccc3)nc21 |  | inconclusive: 31.6 µM [inhibitor, single point] |
| C/C(Cl)=C/Cn1c(NCCN(C)C)nc2c1c(=O)n(C)c(=O)n2C |  | inconclusive: 7.94 µM [inhibitor, partial curve] |
| COC(=O)c1ccc(OCC2c3cc(OC)c(OC)cc3CCN2C(=O)C2CC2)cc1 (stereo not given) |  | inconclusive: 12.6 µM [inhibitor, partial curve] |

Source: PubChem BioAssay AID995 (National Center for Advancing Translational Sciences (NCATS), 2007)
